Data on 62 compounds can be found in PubChem BioAssay AID1508642 (National Center for Advancing Translational Sciences (NCATS), 2021).

Each structure is given as a SMILES string. Screen size: about 43,000 compounds; about 200 (0.47%) were called active. Roughly 12% stayed inconclusive and do not appear here. Calls follow the shape of the dose curve; as a rule, active = well fitted cell-killing curve with a large enough effect; inconclusive = small, poorly fitted or top-dose-only effect, or effect the other way; inactive = flat fitted curve, though single readings scatter. Some of the results follow.
% is scaled to controls: 0 for no effect and ±100 for the full control effect; potency is read from the fitted curve at half-maximal effect.

A short description of the test: Cell viability qHTS assay in S16 Pmp22-F2sN cells. Also: nearly all actives have a fitted effect of over 65% in size. To be noted: S16 Pmp22-F2sN Schwann cells (luciferase reporters placed in the Pmp22 gene) viability, CellTiter-Glo, 24 h; series mostly up to 57.5 µM; activity change, negative = cytotoxicity: at the top concentration. The gist of the method: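 Seed 500-1,000 S16 Pmp22-F2sN cells per well in phenol-red-free DMEM with 10% heat-inactivated FBS; pin-add 23 nL compound; incubate 24 h at 37C; add CellTiter-Glo, wait 15 min protected from light; read luminescence.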
On the technique in general: qHTS replaces the single test concentration by a dilution series.
Take `COc1cccc(C2CC(=O)Nc3c2c(=O)n(C)c2nc4ccccc4n32)c1OC` (configuration not stated): the “activity change, negative = cytotoxicity” value was inactive: -4.14%.
`Cc1ccc(-n2nc3cc(C)c(NC(=O)c4ccc(-c5ccccc5)o4)cc3n2)cc1`: the “activity change, negative = cytotoxicity” value is inactive: -14.8%.
Take `CCOc1ccccc1CNCCCSc1nnnn1C`: the “activity change, negative = cytotoxicity” value is inactive: -0.126%.
On the same count and under the same terms, the figure for `COc1cccc(CNC(=O)Cn2ncc3c(=O)oc4ccccc4c32)c1` is inactive: -11.1%; for `Cc1ccc(CSc2cn(CC(=O)N3CCCCCC3)c3ccccc23)cc1` it is inactive: -25.4%; for `CCCN(Cc1cc2cccc(C)c2[nH]c1=O)C(=O)c1cccc(Cl)c1` it is inactive: -16.7%.
The same measure, in the same setting: the figure for `CCOc1ccc(C2c3c(-c4cc(C)ccc4O)n[nH]c3C(=O)N2Cc2cccnc2)cc1OCC` (configuration not stated) is inactive: 1.59%; for `COc1ccccc1NC(=O)CC(C)n1nc(C)cc1C` (configuration not stated) it is inactive: -0.0889%.
With `Cc1ccc(N(CC(=O)N2CCN(c3ccc(F)cc3)CC2)S(=O)(=O)c2c(C)noc2C)cc1`, the “activity change, negative = cytotoxicity” value is inactive: -2.63%.
Turning to `CC(C)(C)C(=O)NCCc1nc2ccccc2n1CCCCOc1ccccc1`, the “activity change, negative = cytotoxicity” value is inactive: -1.06%.
Still for that read-out and setting: the figure for `Cc1cc(F)ccc1NC(=O)CCS(=O)(=O)c1cc2c(cc1C)NC(=O)CO2` is inactive: 1.38%; for `COc1ccccc1Nc1ncc2c(n1)CCN(Cc1ccc(C)s1)C2` it is inactive: 11.9%.
As to `COc1ccc(OC)c(CCNC(=O)CCCn2c(=O)c3cccn3c3ccc(F)cc32)c1`, the “activity change, negative = cytotoxicity” value is inactive: 1.8%.
Consider `CCOC(=O)N1CCC(NC(=O)c2c(C)nn(-c3cccc(C)c3)c2-n2cccc2)CC1`, for which the “activity change, negative = cytotoxicity” value is inactive: 6.28%.
For `Cc1ccc2c(=O)c(C(=O)c3cccc(Cl)c3)cn(CC(=O)NC3CCCCC3)c2n1`, the “activity change, negative = cytotoxicity” value is inactive: -0.307%.
With `COC(=O)c1ccccc1NC(=O)c1nc(-c2ccc(C)cc2)n2c1CCCCC2`, the “activity change, negative = cytotoxicity” value was inactive: 1.38%.
Regarding `CC(NC(=O)Cn1c(=O)oc2cc(S(=O)(=O)N3CCCCCC3)ccc21)c1ccccc1` (configuration not stated), the “activity change, negative = cytotoxicity” value is inactive: 11.5%.
On to `CC(NC(=O)c1cc2c(=O)n3ccccc3nc2n(C(C)C)c1=N)c1ccccc1` (configuration not stated), for which the “activity change, negative = cytotoxicity” value was inactive: 2.97%.
`COCCNC(=O)Cn1nc(-c2ccccc2)c2ccccc2c1=O`: the “activity change, negative = cytotoxicity” value was inactive: -1.3%.
Take `COc1cc(OC)c(C2CC(=O)Nc3ccc4ccccc4c32)cc1OC` (configuration not stated): the “activity change, negative = cytotoxicity” value is inactive: 19.2%.
As for `CC(=O)N1c2ccccc2C(=O)C1N1CCN(c2cccc(Cl)c2)CC1` (configuration not stated), the “activity change, negative = cytotoxicity” value is inactive: 10.2%.
Regarding `Cc1cccc(OC(=O)CSc2nnc(-c3ccc4c(c3)OCO4)o2)c1C`, the “activity change, negative = cytotoxicity” value is inactive: 0.0037%.
On the same count and under the same terms, the figure for `Cc1ccc(C2=NN(CC(=O)NCCc3ccccc3)C(=O)CC2)cc1` is inactive: 10.6%; for `COc1cccc(Cn2c(=O)n(CC3CCC(C(=O)NC(C)C)CC3)c(=O)c3sccc32)c1` (configuration not stated) it is inactive: -0.283%.
`Cc1cn(C)c(CC(=O)NCc2ccc(Cl)cc2)c1C(=O)O`: the “activity change, negative = cytotoxicity” value was inactive: -5.15%.
Same read-out and setting: the figure for `Cc1ccc(CCNS(=O)(=O)c2ccc3c(c2)C(C(C)C)C(=O)N3)cc1` (configuration not stated) is inactive: -17.1%.
Regarding `COc1cc(NC(=O)CN2C(=O)CCc3cc(Br)ccc32)cc(OC)c1OC`, the “activity change, negative = cytotoxicity” value was inactive: -20.8%.
As to `Cc1cccc(NC(=O)CN2C(=O)C3(SCC(=O)N3c3ccccc3)c3ccccc32)c1` (configuration not stated), the “activity change, negative = cytotoxicity” value was inactive: 1.48%.
The same measure, in the same setting: the figure for `Cc1ccc(Cn2c(C(=O)O)c(CNCc3ccc(C)o3)c3ccc(C)cc32)cc1` is inactive: 26.8%; for `Cc1ccc(S(=O)(=O)N2CCN(Cc3ccccc3Cl)CC2)cc1` it is inactive: -0.295%; for `CCOC(=O)c1c(NC(=O)c2cc(=O)c3cc(C)ccc3o2)sc2c1CCCC2` it is inactive: -16.6%.
With `Cc1ccc2oc(C(=O)Nc3sc4c(c3C(=O)NCC3CCCO3)CCC4)cc(=O)c2c1` (configuration not stated), the “activity change, negative = cytotoxicity” value was inactive: -3.39%.
Take `CCN(CC)c1ccc(NC(=O)CN2CCN(CC(=O)Nc3ccc(Cl)cc3)CC2)cc1`: the “activity change, negative = cytotoxicity” value is inactive: -0.188%.
For `COc1ccc(NC(=O)c2cccc(N3CCCS3(=O)=O)c2)c(OC)c1`, the “activity change, negative = cytotoxicity” value is inactive: 0.0607%.
Take `O=C(NCCC1=CCCCC1)c1ccc2c(c1)sc1nc(-c3ccc(F)cc3)cn12`: the “activity change, negative = cytotoxicity” value is inactive: 3.77%.
Consider `CC(=O)Nc1ccccc1-c1nc2ccccc2n(C(C)C(=O)Nc2ccccc2C(F)(F)F)c1=O` (configuration not stated), for which the “activity change, negative = cytotoxicity” value was inactive: -2.6%.
On to `COc1ccc(-c2c(C)c3ccc(O)c(CN4CCC(C)CC4)c3oc2=O)cc1OC`, for which the “activity change, negative = cytotoxicity” value was inactive: 3.71%.
On to `COc1cccc(CNC(=O)c2ccc(-c3nc(CSc4ccccc4)c(C)o3)cc2)c1`, for which the “activity change, negative = cytotoxicity” value was inactive: -1.41%.
In the case of `COc1cc2c(c(OC)c1)C(c1cccc(F)c1F)CC(=O)N2` (configuration not stated), the “activity change, negative = cytotoxicity” value is inactive: 24.2%.
Still for that read-out and setting: the figure for `CN1CCN(c2ncnc3c2cnn3-c2cccc(Cl)c2)CC1` is inactive: 7.22%; for `COc1cc(OC)c(OC)cc1/C=C/c1nc2cc3ccccc3cc2c(=O)n1-c1ccccc1Br` it is inactive: -0.708%.
On to `Cc1ccc(CNC(=O)c2cc(=O)c3cc(C)ccc3o2)cc1`, for which the “activity change, negative = cytotoxicity” value is inactive: -0.322%.
On to `Cc1ccc(NC(=O)C2CCN(S(=O)(=O)c3cccc4nsnc34)CC2)cc1F`, for which the “activity change, negative = cytotoxicity” value is inactive: 0.742%.
Take `CCCNC(=O)c1ccc2c(c1)nc1n2CCCCC1`: the “activity change, negative = cytotoxicity” value is inactive: -3.43%.
On the same count and under the same terms, the figure for `COc1cccc(CNC(=O)Cn2ncn3nc(-c4cccs4)cc3c2=O)c1` is inactive: -21.1%.
For the compound `Oc1c(C(Nc2ccccn2)c2ccccc2F)ccc2cccnc12` (configuration not stated), the Potency was active: 2000 nM.
As to `COc1ccc(Cn2ccc3nc(C)c(C(=O)Nc4cccc(SC)c4)cc3c2=O)cc1`, the “activity change, negative = cytotoxicity” value is inactive: 16.1%.
As for `CCN1CCN(c2oc(-c3ccc(COc4ccccc4C)o3)nc2C#N)CC1`, the “activity change, negative = cytotoxicity” value was inactive: -20.9%.
On the same count and under the same terms, the figure for `CC(=O)c1ccc(NS(=O)(=O)c2ccc3c(c2)NC(=O)CCS3)cc1` is inactive: 13.4%; for `COc1ccc(NC(=O)C(=O)NCCc2csc3nc(-c4ccccc4F)nn23)cc1OC` it is inactive: 6.22%.
With `CCN(CC)C(=O)c1c(-c2ccccc2)c(-c2ccccc2)nn(CC)c1=O`, the “activity change, negative = cytotoxicity” value is inactive: -0.101%.
Turning to `COc1ccccc1N1CCN(C(=O)CN2C(=O)COc3ccc(S(=O)(=O)N4CCOCC4)cc32)CC1`, the “activity change, negative = cytotoxicity” value is inactive: 4.22%.
Turning to `COc1ccc(CCC(=O)NC2CC(=O)N(c3ccc(F)cc3)C2)cc1` (configuration not stated), the “activity change, negative = cytotoxicity” value was inactive: 0.216%.
In the case of `CCN(Cc1nc(-c2ccc(OC)c(OC)c2)no1)S(=O)(=O)c1ccc(OC)cc1`, the “activity change, negative = cytotoxicity” value was inactive: -14.5%.
Consider `COc1ccc(-c2nc3sc(CCNC(=O)c4ccc(Br)o4)c(C)n3n2)cc1`, for which the “activity change, negative = cytotoxicity” value was inactive: -22.2%.
Consider `Cc1cccc(S(=O)(=O)c2cn(Cc3ccccc3)c3cc(N4CCCCC4)c(F)cc3c2=O)c1`, for which the “activity change, negative = cytotoxicity” value was inactive: -6.67%.
Turning to `CC(C)(C)OC(=O)N1CCC(c2c(C(=O)NC3CCCCC3)cnn2-c2ccc(F)cc2F)CC1`, the “activity change, negative = cytotoxicity” value was inactive: 0.394%.
As for `COc1cc(CNC(=O)c2cnc(SC)nc2-c2ccccc2)cc(OC)c1OC`, the “activity change, negative = cytotoxicity” value is inactive: 3.41%.
Consider `O=C(CSc1nc(=O)n(Cc2ccccn2)c2c1CCC2)Nc1ccccc1`, for which the “activity change, negative = cytotoxicity” value is inactive: 4.21%.
With `N#Cc1c(-c2ccccc2)cc(-c2ccccc2)nc1SCC(O)CS(=O)(=O)Cc1ccc(Cl)cc1` (configuration not stated), the “activity change, negative = cytotoxicity” value is inactive: 0.809%.
As to `Cc1cccc(C)c1NC(=O)Cn1nnc(S(=O)(=O)c2ccccc2)c1N`, the “activity change, negative = cytotoxicity” value was inactive: -16.5%.
Same read-out and setting: the figure for `O=C1CN(C(=O)c2ccc(S(=O)(=O)N3CCCC3)cc2)C(c2ccccc2)c2cc(F)ccc2N1` (configuration not stated) is inactive: 0.604%.
